Data published in the GPR68 mutational scans of Howard et al. (2025).
Scores with a large standard error are left out. Not listed are two conditions whose scores span a narrow range. In variant names, del marks residues removed and ins residues inserted between the two positions. For some assays here: The concentration of ogerin is not given here.

B1: GPR68, Q15743 (parent)
chain: MGNITADNSSMSCTIDHTIHQTLAPVVYVTVLVVGFPANCLSLYFGYLQIKARNELGVYLCNLTVADLFYICSLPFWLQYVLQHDNWSHGDLSCQVCGILLYENIYISVGFLCCISVDRYLAVAHPFRFHQFRTLKAAVGVSVVIWAKELLTSIYFLMHEEVIEDENQHRVCFEHYPIQAWQRAINYYRFLVGFLFPICLLLASYQGILRAVRRSHGTQKSRKDQIQRLVLSTVVIFLACFLPYHVLLLVRSVWEASCDFAKGVFNAYHFSLLLTSFNCVADPVLYCFVSETTHRDLARLRGACLAFLTCSRTGRAREAYPLGAPEASGKSGAQGEEPELLTKLHPAFQTPNSPGSGGFPTGRLA

Tests used:
[1] = variants of: B1; assay: cAMP reporter score (Enrich2 score, wild type = 0); higher = more signal; HEK293T, FACS bins
[2] = variants of: B1; assay: surface expression score (Enrich2 score, wild type = 0); higher = more signal; HEK293T, FACS bins

Row | Variant | cAMP reporter score ([1]; pH 5.5) | cAMP reporter score ([1]; pH 6) | cAMP reporter score ([1]; pH 6, modulator: ogerin) | cAMP reporter score ([1]; pH 6.5, modulator: ogerin) | surface expression score [2]
1 | MGNITADNSSMSCTIRHTIHQTLAPVVYVTVLVVGFPANCLSLYFGYLQIKARNELGVYLCNLTVADLFYICSLPFWLQYVLQHDNWSHGDLSCQVCGILLYENIYISVGFLCCISVDRYLAVAHPFRFHQFRTLKAAVGVSVVIWAKELLTSIYFLMHEEVIEDENQHRVCFEHYPIQAWQRAINYYRFLVGFLFPICLLLASYQGILRAVRRSHGTQKSRKDQIQRLVLSTVVIFLACFLPYHVLLLVRSVWEASCDFAKGVFNAYHFSLLLTSFNCVADPVLYCFVSETTHRDLARLRGACLAFLTCSRTGRAREAYPLGAPEASGKSGAQGEEPELLTKLHPAFQTPNSPGSGGFPTGRLA [D16R] | 0.299 | 0.147 | -0.064 | -0.632 | 0.428
2 | MGNITADNSSMSCTISHTIHQTLAPVVYVTVLVVGFPANCLSLYFGYLQIKARNELGVYLCNLTVADLFYICSLPFWLQYVLQHDNWSHGDLSCQVCGILLYENIYISVGFLCCISVDRYLAVAHPFRFHQFRTLKAAVGVSVVIWAKELLTSIYFLMHEEVIEDENQHRVCFEHYPIQAWQRAINYYRFLVGFLFPICLLLASYQGILRAVRRSHGTQKSRKDQIQRLVLSTVVIFLACFLPYHVLLLVRSVWEASCDFAKGVFNAYHFSLLLTSFNCVADPVLYCFVSETTHRDLARLRGACLAFLTCSRTGRAREAYPLGAPEASGKSGAQGEEPELLTKLHPAFQTPNSPGSGGFPTGRLA [D16S] | 0.387 | -0.372 | 0.098 | -0.744 | 0.739
3 | MGNITADNSSMSCTITHTIHQTLAPVVYVTVLVVGFPANCLSLYFGYLQIKARNELGVYLCNLTVADLFYICSLPFWLQYVLQHDNWSHGDLSCQVCGILLYENIYISVGFLCCISVDRYLAVAHPFRFHQFRTLKAAVGVSVVIWAKELLTSIYFLMHEEVIEDENQHRVCFEHYPIQAWQRAINYYRFLVGFLFPICLLLASYQGILRAVRRSHGTQKSRKDQIQRLVLSTVVIFLACFLPYHVLLLVRSVWEASCDFAKGVFNAYHFSLLLTSFNCVADPVLYCFVSETTHRDLARLRGACLAFLTCSRTGRAREAYPLGAPEASGKSGAQGEEPELLTKLHPAFQTPNSPGSGGFPTGRLA [D16T] | 1.18 | -0.306 | 1.45 | 1.19 | 1.43
4 | MGNITADNSSMSCTIVHTIHQTLAPVVYVTVLVVGFPANCLSLYFGYLQIKARNELGVYLCNLTVADLFYICSLPFWLQYVLQHDNWSHGDLSCQVCGILLYENIYISVGFLCCISVDRYLAVAHPFRFHQFRTLKAAVGVSVVIWAKELLTSIYFLMHEEVIEDENQHRVCFEHYPIQAWQRAINYYRFLVGFLFPICLLLASYQGILRAVRRSHGTQKSRKDQIQRLVLSTVVIFLACFLPYHVLLLVRSVWEASCDFAKGVFNAYHFSLLLTSFNCVADPVLYCFVSETTHRDLARLRGACLAFLTCSRTGRAREAYPLGAPEASGKSGAQGEEPELLTKLHPAFQTPNSPGSGGFPTGRLA [D16V] | 0.203 | -0.435 | 0.083 | -0.363 | 0.111
